# Source: article PMC4336329 (PLoS ONE, 2015)
# Hit rate of the full screen: of about 310,000 compounds, about 2,200 (0.71%) showed an effect of 50% or more. The effect is printed as a negative number. Some of the results follow.
# Molecular target: human ether-à-go-go-related gene (hERG) potassium channel (human, UniProt Q12809)
# Experiment: primary screen, population patch clamp on CHO cells stably expressing hERG
# Sequence of human ether-à-go-go-related gene (hERG) potassium channel (Q12809 whole entry, looked up): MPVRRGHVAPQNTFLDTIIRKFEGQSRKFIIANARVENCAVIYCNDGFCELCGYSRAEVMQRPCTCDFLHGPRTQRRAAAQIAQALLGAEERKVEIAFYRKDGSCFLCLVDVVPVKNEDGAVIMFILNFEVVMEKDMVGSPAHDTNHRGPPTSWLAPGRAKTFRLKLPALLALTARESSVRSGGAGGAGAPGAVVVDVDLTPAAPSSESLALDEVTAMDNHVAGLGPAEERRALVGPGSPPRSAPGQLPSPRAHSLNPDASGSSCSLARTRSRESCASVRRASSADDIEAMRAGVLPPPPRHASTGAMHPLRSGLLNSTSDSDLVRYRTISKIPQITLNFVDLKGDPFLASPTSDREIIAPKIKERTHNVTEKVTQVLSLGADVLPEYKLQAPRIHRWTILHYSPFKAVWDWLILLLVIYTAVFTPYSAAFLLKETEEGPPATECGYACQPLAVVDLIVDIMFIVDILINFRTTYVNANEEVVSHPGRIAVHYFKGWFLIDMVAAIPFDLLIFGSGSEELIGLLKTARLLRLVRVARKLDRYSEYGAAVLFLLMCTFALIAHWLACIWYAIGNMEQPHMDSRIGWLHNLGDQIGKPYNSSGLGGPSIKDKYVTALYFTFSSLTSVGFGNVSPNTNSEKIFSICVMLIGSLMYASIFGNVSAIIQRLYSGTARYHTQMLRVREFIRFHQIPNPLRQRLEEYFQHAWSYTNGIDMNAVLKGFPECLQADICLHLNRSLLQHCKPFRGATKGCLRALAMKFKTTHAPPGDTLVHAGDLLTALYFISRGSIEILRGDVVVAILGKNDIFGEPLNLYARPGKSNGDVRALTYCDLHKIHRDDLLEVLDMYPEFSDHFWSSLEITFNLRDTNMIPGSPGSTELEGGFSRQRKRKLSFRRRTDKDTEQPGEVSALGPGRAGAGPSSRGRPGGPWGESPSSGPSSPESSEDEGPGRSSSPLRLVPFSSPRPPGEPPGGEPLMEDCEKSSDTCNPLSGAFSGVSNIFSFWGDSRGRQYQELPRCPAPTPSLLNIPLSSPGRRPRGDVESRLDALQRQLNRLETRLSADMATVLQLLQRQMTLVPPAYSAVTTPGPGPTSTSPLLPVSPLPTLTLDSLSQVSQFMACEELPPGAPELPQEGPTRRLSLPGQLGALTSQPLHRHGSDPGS
row,Structure (SMILES),"hERG current change (%, negative = inhibition) at 1uM [%]"
1,COC(=O)c1sccc1NC(=O)Nc1cccc(C)c1,5.31
2,COc1ccc(CCNC(=S)Nc2ccccc2)cc1,4.29
3,COc1ccc(NS(=O)(=O)c2cccc(C(=O)N3CCCC(C)C3)c2)cc1 (stereo not drawn),3.3
4,O=S(=O)(c1ccccc1)N1CCC(O)(CN2CCN(c3ccccc3)CC2)CC1,14.8
5,O=C(COc1ncnc2sccc12)Nc1cccc(S(=O)(=O)N2CCCC2)c1,2.21
6,Cc1ccc(OCC(=O)Nc2ccncc2)c(C)c1,4
7,O=C(N/N=C/c1ccc(OC(=O)c2ccccc2)cc1)c1cccnc1,19.1
8,CCNc1nc(NCC)n2c(SCC(=O)Nc3ccc(C(F)(F)F)cc3[N+](=O)[O-])nnc2n1,10.6
9,Cc1nn(C(=O)/C(C#N)=C/N(C)C)c(C)c1C,17.7
10,CCNc1nnc(CSc2nc3ccccc3s2)s1,-9.62
11,CCOC(=O)c1cccc(NC(=O)c2ccccc2C)c1,-8.45
12,Fc1ccc(-c2nn(-c3ccccc3)cc2CNCc2ccccc2)cc1,7.64
13,N/C(COc1ccc(Cl)cc1Cl)=N\NS(=O)(=O)c1ccccc1,5.59
14,N#CCCn1nc(-c2ccccc2)cc1Nc1ccccc1NC(=O)c1cccs1,12.5
15,O=C(COC(=O)c1cc(Cl)ccc1O)NNC(=O)c1ccc([N+](=O)[O-])cc1,3.31
16,NC(=O)c1ccc(N2CCN(c3ccc(O)cc3)CC2)c([N+](=O)[O-])c1,0.331
17,COc1cc(NC(=O)COc2ccc(-n3ccnc3)cc2)cc(OC)c1,-4.56
18,CCOC(=O)C(=CNc1cc(C(F)(F)F)ccc1N1CCOCC1)C(=O)OCC,-1.02
19,COc1cc(C(=O)N/N=C(\c2ccccc2)c2ccccn2)cc(OC)c1OC,9.74
20,CCc1ccc(/C=C2/SC(=S)N(CCC(=O)Nc3cccnc3)C2=O)cc1,-0.954
21,C/C(=N\NC(=O)CSc1nc2ccccc2c(=O)n1-c1ccccc1C)c1cccs1,7.59
22,CC(=O)N1N=C(c2ccccc2O)OC1(C)CC(=O)Nc1ccccc1 (stereo not drawn),1.15

row,Structure (SMILES),"hERG current change (%, negative = inhibition) at 1uM [%]"
1,CC(Oc1ccccc1)C(=O)Nc1cc(Cl)ccc1-n1cncn1 (stereo not drawn),-6.12
2,COc1ccccc1C(CC(=O)O)c1ccc2c(c1)OCO2 (stereo not drawn),9.8
3,CC(C)C1=CC(=Nc2ccc(S(N)(=O)=O)cc2)C=C(C(C)C)C1=O.O,13.3
4,COc1cccc(C(c2sc3nc(C)nn3c2O)N2CCc3ccccc3C2)c1 (stereo not drawn),2.75
5,Cn1c(CNc2nc(-c3ccccc3)cs2)nnc1SCC(=O)N1CCc2ccccc21,9.84
6,Cc1ccc(C(=O)n2nnc3ccccc32)cc1,7.88
7,CN(Cc1ccccc1)S(=O)(=O)c1ccc(NS(=O)(=O)Cc2ccccc2)cc1,13.1
8,COc1ccc(/C=C2/C(=O)N=C3SCCN32)cc1,-17.1
9,Cc1ccc(C2C3=C(CCCC3=O)Nc3nc(SCC(=O)NCc4ccco4)[nH]c(=O)c32)cc1 (stereo not drawn),-3.42
10,Cc1ccc(OCC(=O)Nc2cc(C(C)(C)C)on2)cc1C,7.5
11,CN1CCN(Cc2nc(Cc3cccc(F)c3)no2)CC1c1ccccc1 (stereo not drawn),1.01
12,O=C(NNC(=O)C1CC1)c1ccc(-c2ccccc2)cc1,6.86
13,COc1cccc(N2CCN(C(=O)CCS(=O)(=O)c3ccc4c(c3)oc(=O)n4C)CC2)c1,13.5
14,Cn1c(=O)c2c(nc(CO)n2C)n(C)c1=O,17.1
15,OC(CNCC1CCCO1)COc1ccc(OCC(O)CNCC2CCCO2)cc1 (stereo not drawn),7.73
16,CC(Oc1ccc(Cl)cc1Cl)C(=O)Nc1ccc(O)cc1 (stereo not drawn),5.61
17,CCOC(=O)c1sc2nc(C(C)C)c3c(c2c1N)CC(C)(C)OC3,4.56
18,COc1ccc(-c2csc(NC(C)c3nc4cc(Cl)c(N5CCCCC5)cc4n3CCOCCO)n2)cc1 (stereo not drawn),10.6
19,Cc1cc(Br)ccc1NC(=O)c1sc2ncnc(N3CCN(c4ccccn4)CC3)c2c1C,-1.45
20,O=c1c2c(ncn1CCO)nc1n2CCC1,13.5
21,O=C(NNC(=O)C1CCN(S(=O)(=O)c2ccc(Cl)cc2)CC1)c1ccc(S(=O)(=O)N2CCCCC2)cc1,2.65
22,COc1cccc(OCC(=O)NNC(=O)c2cnccn2)c1,15.2

row,Structure (SMILES),"hERG current change (%, negative = inhibition) at 1uM [%]"
1,C=CCc1c(C)nc2cc(-c3ccccc3)[nH]n2c1=O,8.22
2,c1ccc(-c2noc(CSc3nc4ccccc4o3)n2)cc1,-1.26
3,c1ccc2c(-n3cccn3)cccc2c1,5.7
4,CCOC(=O)N1CCN(C(=O)C2CCC(=O)N(Cc3cccc(C(F)(F)F)c3)C2)CC1 (stereo not drawn),9.92
5,CCOC(=O)Cn1c(Br)nc2c1c(=O)[nH]c(=O)n2C,-15.5
6,Cc1ccc(-c2cc(C(=O)N3CCN(c4ccccc4O)CC3)c3ccccc3n2)cc1,14.6
7,COc1ccc(C2c3c(ncn(CCN4CCOCC4)c3=N)Oc3ccc4ccccc4c32)cc1 (stereo not drawn),-3.2
8,COc1ccc(C2C(C#N)=C(N)N(c3sc4c(c3C#N)CCCC4)C3=C2C(=O)CC(C)(C)C3)cc1OC (stereo not drawn),12.7
9,CCOCCCNC(=O)C(NC(=O)C1CCC(=O)N1)c1ccc(C)cc1 (stereo not drawn),6.89
10,O=C(CCN1C(=O)C2C3CCC(C3)C2C1=O)Nc1ccccc1Cl (stereo not drawn),9.42
11,COc1cc(/C=C(\NC(=O)c2ccccc2)C(=O)N2CC3CC(C2)c2cccc(=O)n2C3)cc(OC)c1OC (stereo not drawn),14.1
12,CN(C)c1ccc(N=Nc2ccccc2C(=O)OCC(=O)N2CCCCCC2)cc1,7.35
13,O=C(Nc1ccc(Br)cn1)C1CCCN1S(=O)(=O)c1ccccc1 (stereo not drawn),-1.37
14,O=C(NC(NC(=S)Nc1ccccc1C(=O)O)C(Cl)(Cl)Cl)c1ccccc1 (stereo not drawn),4.84
15,CCOC(=O)c1c(NC(=O)CN2C(=O)NC3(CCC(C)CC3)C2=O)sc(C)c1CC (stereo not drawn),6.67
16,CC(=O)c1cccc(NC(=O)CSC(=O)c2ccccc2)c1,9.57
17,Cc1ccc(N2CC(C(=O)N/N=C/c3c(F)cccc3Cl)CC2=O)cc1 (stereo not drawn),0.61
18,CN(C/C=C/c1ccccc1)Cc1cccc2ccccc12.Cl,5.76
19,O=C(NCc1nnc2c3ccccc3c(-c3ccccc3)nn12)c1ccc(Cl)cc1,0.471
20,COc1ccc(-n2c(SCC(=O)O)nc3sc4c(c3c2=O)CCCC4)cc1,12.7
21,O=S(=O)(NCCC1=CCCCC1)c1c(Cl)cccc1Cl,13.6
22,Fc1ccccc1N1CCN(C2CCCN(Cc3ccccc3C(F)(F)F)C2)CC1 (stereo not drawn),16.7

row,Structure (SMILES),"hERG current change (%, negative = inhibition) at 1uM [%]"
1,Cc1cc(NC(=O)Nc2cccc3ccccc23)no1,14.1
2,CC(=O)Nc1ccc(S(=O)(=O)NC(CC(=O)N2CCC3(CC2)OCCO3)C(C)C)cc1 (stereo not drawn),14.7
3,Cc1nn(CC(=O)Nc2ccc3c(c2)nc(CN2CCCC2)n3C)c(=O)c2ccccc12,10.2
4,COc1ccc(CCNC(=O)CSC2=NS(=O)(=O)c3ccccc3N2)cc1OC,3.89
5,CC(=O)Nc1ccccc1C(=O)C(=O)Nc1ccc(F)cc1,1.95
6,O=C(Nn1cnnc1)c1cc2cc(Br)ccc2oc1=O,1.13
7,CCOC(=O)C1=C(c2cccc(Oc3ccccc3)c2)NC(=S)NC1C (stereo not drawn),4.25
8,O=C(NCc1ccco1)c1csc(Nc2ccccc2Cl)n1,0.399
9,O=C(Oc1cccc2ccccc12)c1ccncc1,12.5
10,Cc1ccc(C(=O)C2CCN(S(=O)(=O)c3ccc(C(=O)O)cc3)CC2)cc1,10.7
11,COc1c(C(C)C)oc2cc3oc(=O)ccc3cc12,10.9
12,CN(CC1CCCN(CCc2cccc(C(F)(F)F)c2)C1)C(=O)c1ccc2nc[nH]c2c1 (stereo not drawn),5.78
13,CCOc1ccc(C(=O)N(Cc2ccccc2)c2cccc(C)c2)cc1OC,9.72
14,O=S(=O)(c1ccc(F)cc1)N1CC2CCCN2c2ccc(C(F)(F)F)cc21 (stereo not drawn),12.6
15,CCOC(=O)CCn1c(CC(=O)OCC)nc2ccccc21.Cl.O,-7.12
16,CC(=O)c1cccc(S(=O)(=O)N2CCC(C(=O)O)CC2)c1,17.5
17,CCCc1cc(C(=O)Cc2ccc(F)cc2)c(O)cc1O,7.88
18,Cc1ccc(NC(=O)c2c3c(nc4ccccc24)CCC3)cc1S(=O)(=O)N(C)C,15.6
19,CCN(CC)c1ccc(C(=O)Nn2c(C)nc3ccccc3c2=O)cc1,11.5
20,CCC(=O)c1c[nH]c(C(=O)NCc2cccc(C(F)(F)F)c2)c1,8.4
21,Cc1ccc(F)cc1NC(=O)CN1C(=O)NC(C)(c2ccc3c(c2)OCCO3)C1=O (stereo not drawn),2.55
